Assay [1] deals with T1, human full-length CD47 protein (human, UniProt Q08722).
T1 construct: whole, on cells; also called CD47 stably transferred cells; CD47 on the surface of erythrocyte
Briefly: flow cytometry on human erythrocytes, donor 2, anti-human Fc-FITC. A general note: A flow cytometer gives signals particle by particle.

Assay [2] addresses T1, human full-length CD47 protein. Briefly: flow cytometry on human erythrocytes, donor 1, anti-human Fc-FITC.
For assay [3] the target is unchanged. Briefly: competition flow cytometry on CD47 stably transfected cells, antibody titrated against 5 µg hSIRPa (ECD)-Fc-Biotin.
Assay [4] has as its target T2, hCD47 (ECD)-Fc protein (human, UniProt Q08722 part only, limits assumed).
T2 construct: extracellular domain; Expressed in HEK293F, purified on Protein A; also called hCD47 (ECD)-Fc antigen; not shown: IgG1 Fc as encoded by the pFUSE-IgG1 vector
Kind of assay: BLI, ForteBio Octet, Protein A probe, 30° C. (In BLI a coated tip is dipped into the sample, and binding shifts an interference pattern.)

B1: humanized CD47 antibody Fc fusion protein (MY2238) expressed by the CHO-S system (Fc fusion)
chain: QVQLQESGGGLVQPGGSLRLSCAASGYAYTSDCMGWFRQTPGKGLEGVALIYTPGNSTNYADSVKGRFTISQDNSKSTVYLQMNSLRAEDTAMYYCAARRGACSLRLPFFYWGQGTLVTVSS[human IgG4 Fc with changes skipped]
notes: also called candidate antibody MY2238
Regarding B1, the EC50 in assay [1] was 0.644 mg/L; in assay [2], 0.662 mg/L.

B2: humanized CD47 single domain antibody Fc fusion protein Nb1902-Fc (Fc fusion)
chain: QVQLQESGGGLVQPGGSLRLSCAASGYAYTSDCMGWFRQTPGKGLEGVALIYTPGNSTNYADSVKGRFTISQDNSKSTVYLQMNSLRAEDTAMYYCAARRGACSLRLPFFYWGQGTLVTVSS[human IgG4 Fc with changes skipped]
notes: Expressed in HEK293F; also called humanized single domain antibody Nb1902-Fc
As for B2, the IC50 in assay [3] turned out to be 1.51 mg/L. In assay [4], this molecule had a Kd of 1.65 nM.

For orientation: EC50 means the concentration that produces a half-maximal response. A low value points to a more potent agent. What is called IC50 is the point on the concentration scale where inhibition reaches its midpoint. High values mean a need for much substance, low ones inhibition by little substance. The term Kd denotes a measure of binding affinity in units of concentration. Low values mean a tighter complex, high ones a looser complex.
